# Measured values taken from article PMC4336329 (PLoS ONE, 2015).
# The whole screen tested about 310,000 compounds, of which about 2,200 (0.71%) showed an effect of 50% or more. Effects have a minus sign here. Some of the results follow.
# Target: human ether-à-go-go-related gene (hERG) potassium channel (human, UniProt Q12809)
# Experiment: primary screen, population patch clamp on CHO cells stably expressing hERG
# human ether-à-go-go-related gene (hERG) potassium channel, sequence (Q12809 whole entry, looked up): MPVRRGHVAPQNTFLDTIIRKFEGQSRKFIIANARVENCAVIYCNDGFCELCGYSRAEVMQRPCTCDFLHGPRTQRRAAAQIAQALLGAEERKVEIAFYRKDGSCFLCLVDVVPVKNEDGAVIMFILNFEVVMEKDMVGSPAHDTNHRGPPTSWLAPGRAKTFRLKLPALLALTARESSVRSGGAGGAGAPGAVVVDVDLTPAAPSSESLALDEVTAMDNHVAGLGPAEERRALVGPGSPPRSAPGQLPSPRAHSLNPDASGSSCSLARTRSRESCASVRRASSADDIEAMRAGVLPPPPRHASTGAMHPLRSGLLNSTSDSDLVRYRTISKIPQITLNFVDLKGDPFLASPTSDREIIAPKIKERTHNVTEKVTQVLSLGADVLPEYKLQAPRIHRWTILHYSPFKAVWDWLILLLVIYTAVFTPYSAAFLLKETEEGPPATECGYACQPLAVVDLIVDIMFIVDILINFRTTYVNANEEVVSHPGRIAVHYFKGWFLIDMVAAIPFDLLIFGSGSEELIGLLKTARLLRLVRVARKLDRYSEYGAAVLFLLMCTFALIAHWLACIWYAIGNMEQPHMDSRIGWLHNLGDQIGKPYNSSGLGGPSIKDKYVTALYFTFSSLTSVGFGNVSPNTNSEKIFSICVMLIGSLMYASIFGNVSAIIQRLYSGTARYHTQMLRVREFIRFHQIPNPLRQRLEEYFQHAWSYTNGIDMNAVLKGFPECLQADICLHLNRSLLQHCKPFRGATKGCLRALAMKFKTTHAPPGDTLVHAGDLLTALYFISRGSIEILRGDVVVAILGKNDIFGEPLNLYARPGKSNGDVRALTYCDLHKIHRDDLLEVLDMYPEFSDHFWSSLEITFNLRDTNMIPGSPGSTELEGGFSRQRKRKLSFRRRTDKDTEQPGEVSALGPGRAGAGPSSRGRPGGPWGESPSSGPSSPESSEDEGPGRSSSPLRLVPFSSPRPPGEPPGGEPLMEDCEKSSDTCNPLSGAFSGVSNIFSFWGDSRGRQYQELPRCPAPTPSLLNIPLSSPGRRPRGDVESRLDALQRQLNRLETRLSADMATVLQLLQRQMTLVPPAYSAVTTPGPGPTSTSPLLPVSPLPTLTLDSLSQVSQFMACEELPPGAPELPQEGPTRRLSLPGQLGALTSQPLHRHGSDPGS
row,SMILES,"hERG current change (%, negative = inhibition) at 1uM"
1,COc1ccc(OC)c(-n2c(C)nc3cc(C(=O)O)ccc32)c1,0.714%
2,C(=C\c1ccncc1)/c1ccncc1,-0.249%
3,COc1ccc(CNC(=O)CCSCc2ccccc2Cl)c(OC)c1,10.1%
4,CCOc1ncccc1C(=O)OC(C)C(=O)NC(=O)NC1CCCCC1 (stereo not drawn),-11.1%
5,COC(=O)c1cccc(NC(=O)CSc2nc(C)cc(=O)[nH]2)c1,18.3%
6,COC(=O)Nc1ccc(S(=O)(=O)N2CCCC(C(=O)N3CCOCC3)C2)cc1 (stereo not drawn),1.16%
7,CCC(C(=O)NCCc1c[nH]c2ccc(C)cc12)c1ccccc1 (stereo not drawn),11.8%
8,CN(Cc1ccccc1)c1ncc(C=O)s1,13.7%
9,CC1CCN(CCC(=O)Nc2nccs2)CC1,16.3%
10,O=C(CN1C(=O)NC2(CCCC2)C1=O)OCc1cc(=O)n2cc(Br)ccc2n1,4.9%
11,CC(=O)Nc1ccc2c(c1)CCCC2,11.7%
12,CN(C(=O)/C=C/c1ccc([N+](=O)[O-])s1)c1ccccc1,10.7%
13,CC12CCC(=O)N1C(C(=O)Nc1ccccc1N1CCOCC1)CS2 (stereo not drawn),9.04%
14,Cc1c(Cl)cccc1NC(=O)C1CCCN(S(C)(=O)=O)C1 (stereo not drawn),15.8%
15,OCCNCC12CC3CC(CC(C3)C1)C2,11.1%
16,O=C(CCc1nnc2ccc(N3CCCC3)nn12)Nc1ccc(F)cc1F,16.1%
17,CCc1nc(SCC(=O)Nc2ccccc2C)n[nH]1,17.9%
18,CCn1c(SCC(=O)Nc2cc(C)on2)nnc1-c1cccnc1,2.2%
19,O=C(O)C(=O)/C(=C\c1ccc([N+](=O)[O-])cc1)c1ccc2ccccc2n1,-2.09%
20,O=C(CNC(=S)N(CCCN1CCOCC1)Cc1cccs1)NCc1ccccc1Cl,-35.5%
21,C[C@@H](NC(=O)c1ncn(Cc2ccccc2)c1C(=O)N[C@H](C)c1ccccc1)c1ccccc1,8.14%
22,COC(=O)C(NS(=O)(=O)c1ccccc1Cl)c1ccccc1 (stereo not drawn),15.5%
23,CC(=O)NC(Cc1cccc(C)c1)C(=O)NC1CCN(S(=O)(=O)c2ccccc2)CC1 (stereo not drawn),1.44%

row,SMILES,"hERG current change (%, negative = inhibition) at 1uM"
1,CCOC(=O)c1c(-c2ccccc2Cl)csc1NC(=O)c1cc(S(=O)(=O)N2CCOCC2)ccc1C,15%
2,CC(C)(C)N(Cc1ccccc1)C(=O)COC(=O)Cn1cnc2ccccc2c1=O,4.17%
3,O=C(O)c1ccccc1C(=O)N1CC=C(c2ccccc2)CC1,7.75%
4,O=C(CN(C(=O)c1csnn1)c1cccc(C(F)(F)F)c1)NC1CCCC1,13.2%
5,O=C(COC(=O)c1ccco1)c1ccc(S(=O)(=O)N2CCCCC2)cc1,10.4%
6,Cc1ccccc1OCc1nc2ccccc2c(=O)n1/N=C/c1cn[nH]c1-c1ccc(Br)cc1,14.1%
7,CCOC(=O)c1[nH]c2ccccc2c1NC(=O)CN(C)C,15.1%
8,c1ccc(-c2ccc(-c3[nH]ncc3CN3CCC(N4CCSCC4)CC3)cc2)cc1,1.79%
9,COc1ccc(CN2CCC(C)CC2)cc1OCc1ccccc1,-5.87%
10,Cc1ccc(SCC(=O)OCC(=O)NCCNC(=O)COC(=O)CSc2ccc(C)c(C)c2)cc1C,3.61%
11,COc1ccc(Cn2nnnc2C(c2ccc3ncccc3c2)N2CCN(C3CCCCC3)CC2)cc1 (stereo not drawn),-79.3%
12,O=C(Cn1c(=O)oc2ccccc21)N1CCOCC1,16.6%
13,Cc1c(NC(=O)/C(C#N)=C/c2ccc(-c3ccc(Cl)c(Cl)c3)o2)c(=O)n(-c2ccccc2)n1C,4.03%
14,C=CCN(CC=C)Cc1cc(=O)n2c(-c3ccccc3)csc2n1,14.9%
15,CCOC(=O)[C@H]1[C@H]2COc3ccc(Cl)cc3[C@@H]2N2C(=O)c3ccc(F)cc3NC(=O)[C@@]12C,9.77%
16,CCc1ccc(C(=O)NC(C(=O)NCC2CCCO2)C(C)C)cc1 (stereo not drawn),19.9%
17,COc1cccc(NC(=S)N(CCCN2CCC(C)CC2)Cc2cccs2)c1,-33.5%
18,CCOc1[nH]n(-c2ccccc2)c(=O)c1C=NCC(=O)OC,-2%
19,O=C(NCc1ccco1)c1ccc2c(c1)N(Cc1ccc(Cl)cc1)CCS2,0.373%
20,COc1cc(/C=C/C(=O)OCC(=O)NCC(=O)Nc2cccc(C)c2C)ccc1OC(F)F,7.65%
21,CCCCNC(=O)c1ccc2c(c1)C(=O)N(Cc1ccncc1)C2=O,-0.381%
22,O=C(COc1ncnc2sccc12)Nc1ccc(F)cc1F,9.9%
